Results reported in the supplement of paper PMC10126150.
Sequences with one replicate were seen in a single cluster, so their values are uncertain.

Test system: ATP
Test: switch fluorescence ratio, 500 uM ATP over buffer (Cy3 cluster intensity, sum of 5 cycles each) (fold (ratio)); higher = stronger signal-on switching upon ATP binding; sequences stand for … in TCGTCGGCAGCGTCAGATGTGTATAAGAGACAGTTTTTTTTTTTTTTTTTTTTTTTTT…TC
Details: aptamer strand: ATP DNA aptamer (quencher-CACCTGGGGGAGTATTGCGGAGGAAGG + anchor), 100 nM annealed; ATP concentration: 500 uM; one replicate
Procedure, shortened: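 For every switch-domain sequence, the fluorescence ratio is the mean of per-cluster values, each being summed target-cycle Cy3 intensity over summed buffer-cycle Cy3 intensity. Clusters outside 100-1000 RFU were excluded. On a modified Illumina MiSeq flow-cell, the Cy3-labelled switching-strand clusters were annealed to 100 nM quencher-labelled ATP aptamer, imaged in selection buffer and then after 15 min with 500 uM ATP at 22 °C. Five such cycles were run, with NaOH stripping and re-annealing between them.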
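Also: ATP exposure 15 min at 22 °C before imaging.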

Row | Sequence | switch fluorescence ratio
1 | GAAATGTTTA | 0.97
2 | ATAGCGTTGG | 0.985
3 | GCGGGTCCGT | 0.983
4 | AGTTGCGACT | 1
5 | AGAAATTGGC | 1.05
6 | GCTACCGAGA | 1.11
7 | GGTTAGTTCG | 0.989
8 | TTTAGCCCAC | 0.983
9 | GGACCCGGTG | 1
10 | CACTTTGCAT | 1.15
11 | AAAGTCTTTT | 0.995
12 | TTGCAGTTCC | 1.05
13 | GATCTCGCGG | 0.985
14 | GATAATGTGC | 0.974
15 | GATCGAAGGC | 0.976
16 | ACCATGGTCT | 0.965
17 | ATGCTGATTT | 1.02
18 | TAAGTCTTTT | 1.01
19 | TGGCTGCAT | 1.47
20 | CTCGCTTGTG | 1.01
21 | AAGTCATCAG | 1.04
22 | CCTAACATCG | 1.06
23 | GACGTTACGA | 1.41

Row | Sequence | switch fluorescence ratio
24 | CTGGGTGTAA | 1.01
25 | AGGGTACTAA | 1.05
26 | CATAACTATG | 0.97
27 | TAAGCTTTGG | 0.943
28 | CTCTATGTTC | 1
29 | CCTTTTTGAG | 0.97
30 | AACTGGGGCC | 0.992
31 | TCAAGGATAT | 1.05
32 | ATAGTATATA | 1.01
33 | GCCGCCGGTG | 1.1
34 | ATAATCTTTG | 0.999
35 | ATCGGGTAGG | 1
36 | GACGACGGCA | 1.3
37 | ACCAACCTAC | 1.41
38 | TAGATATGTC | 0.988
39 | ATCATATACT | 1.07
40 | AGTCATATGG | 0.987
41 | GTGAGGCAGC | 0.938
42 | ACCTCTACTA | 1.24
43 | TCGCCGAGA | 1.04
44 | TATACTCACA | 1.35
45 | TTGTCGACT | 1.01
46 | TAAATACTGT | 1.07

Row | Sequence | switch fluorescence ratio
47 | TGTGGCTGCT | 1.07
48 | AACGTCTAGC | 1.08
49 | CGGGAGTGGG | 0.955
50 | GGCATGTTGG | 1
51 | GCGGAGCGGT | 1.13
52 | CAGGACATAG | 0.968
53 | TCCGTCATAG | 0.974
54 | GAGTTACAAG | 1.08
55 | AATATTGAGC | 0.999
56 | TAGAACCCTT | 1
57 | ATAAAGTAAC | 1.02
58 | AAAAAACCCC | 1.1
59 | AATGGATCGT | 1
60 | CATGCGTATC | 1.15
61 | TATTAAAGCT | 1.15
62 | ACGGATTTTG | 0.992
63 | TTCGTGGGAG | 0.988
64 | CTCGGGGGCC | 1.05
65 | ACTGTCTGCT | 1
66 | GGCGTCTCAG | 1.01
67 | AGCAGGGG | 1.46
68 | GCGTCTATTT | 0.998
69 | AGATCACTT | 1.1

Row | Sequence | switch fluorescence ratio
70 | GGTACCTTGT | 1.05
71 | TCATTTGTT | 0.992
72 | AGTGTAGTAT | 0.985
73 | ACACCCACGC | 1.33
74 | TTCAGGCGCA | 1.14
75 | GAGGTGAAAA | 1.02
76 | AGAGACTATA | 0.989
77 | GGAGCCAATC | 2.65
78 | CATTACGGAG | 1.05
79 | ACCAAGGGTC | 0.961
80 | GCTGTATGC | 0.971
81 | CAGTAAGTAT | 0.992
82 | AAGGTAGCTC | 1.05
83 | GTGCAATGCA | 1.02
84 | GGCCTCAGGC | 0.985
85 | TAACCTCC | 2.38
86 | CGTTGCCAAA | 0.991
87 | TGCCTTATCA | 1.02
88 | TGACAGTCAC | 1.09
89 | GACGATTTTC | 0.976
90 | GCCTTGCTTC | 0.962
91 | CGATGTTA | 0.963
92 | TATCTCAGTT | 0.977

Row | Sequence | switch fluorescence ratio
93 | GGGTGTGTTC | 1.05
94 | GAATGGCGGC | 1.03
95 | AGGTGAGTCT | 1.08
96 | CGTTGCAGGA | 1.07
97 | AACTATTCTC | 0.969
98 | TGTACGGCTT | 1
99 | ACGTTCACGG | 1.11
100 | TGCTCCTTGT | 0.977
101 | GTGAGTGCTA | 0.948
102 | GGGTCGGCTC | 0.968
103 | ATTATAGTCT | 0.961
104 | CGAAATAGAC | 1.07
105 | TGGTGGTTGG | 1.01
106 | AAATCCGAAG | 1.14
107 | TGCCGCCCTA | 1.01
108 | GTGTTTGGGC | 1.01
109 | TCTCGTCGCC | 1.03
110 | ATATAATTG | 1.05
111 | ATAACGAGAG | 1.01
112 | TATTTGTA | 1.03
113 | ACTGATGTGC | 1.1
114 | GGCGACGGGA | 1.04
115 | CCTAATTGTG | 0.95

Row | Sequence | switch fluorescence ratio
116 | AAATTTTAAC | 1.03
117 | AAGTGGGCAG | 0.968
118 | AGCAGCAGGG | 1.03
119 | GACCGGGGCT | 0.975
120 | CTATCGCTTT | 1.11
121 | TAATCCCTTG | 0.988
122 | TTTATGCCCC | 0.977
123 | TTTGTATGT | 1.01
124 | CGGGCTTCTC | 1.01
125 | ATTGTCGAGG | 1.05
126 | TTACCGCTTA | 1.24
127 | GTATGGACTT | 0.969
128 | GTGGGGACGA | 1.04
129 | TCCGCGGCCT | 1.46
130 | CGCGGTGGGG | 0.974
131 | ATGAGATT | 1.03
132 | TGCTTTATTT | 1.04
133 | CAAGGTTTTC | 1
134 | AGCGTCTTGG | 0.975
135 | TACAAATCT | 1.02
136 | CAAATGAAG | 0.979
137 | ACTACTCCGC | 3.46
138 | AACTAGGTGC | 1.67

Row | Sequence | switch fluorescence ratio
139 | CGCTGGCCAA | 1.14
140 | TTCCAGGCCA | 1.01
141 | GGCGAAGAGA | 1.02
142 | GTTGCTGTTA | 1.02
143 | TACATGGTAA | 0.995
144 | ACGGCTTCGA | 0.987
145 | AAGGAATATT | 1.01
146 | CCTCTTAT | 1.06
147 | CCTCTATTCC | 1.31
148 | TCAGGGCTAC | 0.985
149 | CGAGATGTGA | 1.01
150 | ACTGGCCCCT | 1.01
151 | CTGCGGTGTG | 0.998
152 | CGTCTTTTTC | 0.953
153 | AGGTGGCTTC | 0.953
154 | CGGGCGGAAG | 1
155 | GGTGTCGAGA | 0.996
156 | CGGCTTTT | 0.949
157 | CGGCCTTTAA | 0.96
158 | AAATATACTC | 1.16
